# Some of the results follow.
# Assays:
# Assay in all cases: glycan array binding signal (z-score within array); higher = stronger binding
# Settings in all cases: glycan notation: IUPAC condensed, linker removed
# Fuc(a1-2)Gal = molecular target: Fuc(a1-2)Gal
# Method in brief: (§1)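 From the Consortium for Functional Glycomics database, 3228 arrays were curated, keeping only those whose protein sequence was available. Binding is given as a within-array Z-score averaged across arrays sharing a protein sequence and across linkers. Negative Z-scores can be read as non-binding.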
# Fuc(a1-2)Gal(b1-3)GalNAc = molecular target: Fuc(a1-2)Gal(b1-3)GalNAc
# Method in brief: as §1
# [1] = molecular target: Fuc(a1-2)Gal(b1-3)GalNAc(a1-3)[Fuc(a1-2)]Gal(b1-4)Glc
# Method in brief: as §1
# [2] = molecular target: Fuc(a1-2)Gal(b1-3)GalNAc(a1-3)[Fuc(a1-2)]Gal(b1-4)GlcNAc
# Method in brief: as §1
# [3] = molecular target: Fuc(a1-2)Gal(b1-3)GalNAc(b1-3)Gal
# Method in brief: as §1
# [4] = molecular target: Fuc(a1-2)Gal(b1-3)GalNAc(b1-3)Gal(a1-4)Gal(b1-4)Glc
# Method in brief: as §1
# [5] = molecular target: Fuc(a1-2)Gal(b1-3)GalNAc(b1-4)[Neu5Ac(a2-3)]Gal(b1-4)Glc
# Method in brief: as §1
# Fuc(a1-2)Gal(b1-3)GlcNAc = molecular target: Fuc(a1-2)Gal(b1-3)GlcNAc
# Method in brief: as §1
# [6] = molecular target: Fuc(a1-2)Gal(b1-3)GlcNAc(b1-2)Man(a1-3)[Fuc(a1-2)Gal(b1-3)GlcNAc(b1-2)Man(a1-6)]Man(b1-4)GlcNAc(b1-4)GlcNAc
# Method in brief: as §1
# [7] = molecular target: Fuc(a1-2)Gal(b1-3)GlcNAc(b1-2)Man(a1-3)[Fuc(a1-2)Gal(b1-3)GlcNAc(b1-2)Man(a1-6)]Man(b1-4)GlcNAc(b1-4)[Fuc(a1-6)]GlcNAc
# Method in brief: as §1
# [8] = molecular target: Fuc(a1-2)Gal(b1-3)GlcNAc(b1-3)Gal(b1-4)Glc
# Method in brief: as §1
# [9] = molecular target: Fuc(a1-2)Gal(b1-3)GlcNAc(b1-3)GalNAc
# Method in brief: as §1
# [10] = molecular target: Fuc(a1-2)Gal(b1-3)GlcNAc(b1-3)[Fuc(a1-2)Gal(b1-3)GlcNAc(b1-6)]GalNAc
# Method in brief: as §1
# [11] = molecular target: Fuc(a1-2)Gal(b1-3)GlcNAc(b1-3)[Gal(b1-4)GlcNAc(b1-6)]Gal(b1-4)Glc
# Method in brief: as §1
# [12] = molecular target: Fuc(a1-2)Gal(b1-3)GlcNAc(b1-3)[Neu5Ac(a2-6)Gal(b1-4)GlcNAc(b1-6)]Gal(b1-4)Glc
# Method in brief: as §1
# [13] = molecular target: Fuc(a1-2)Gal(b1-3)GlcNAc6S
# Method in brief: as §1
# [14] = molecular target: Fuc(a1-2)Gal(b1-3)[Fuc(a1-4)]GlcNAc
# Method in brief: as §1
# [15] = molecular target: Fuc(a1-2)Gal(b1-3)[Fuc(a1-4)]GlcNAc(b1-2)Man(a1-3)[Fuc(a1-2)Gal(b1-3)[Fuc(a1-4)]GlcNAc(b1-2)Man(a1-3)]Man(b1-4)GlcNAc(b1-4)GlcNAc
# Method in brief: as §1
# [16] = molecular target: Fuc(a1-2)Gal(b1-3)[Fuc(a1-4)]GlcNAc(b1-2)Man(a1-3)[Fuc(a1-2)Gal(b1-3)[Fuc(a1-4)]GlcNAc(b1-2)Man(a1-6)]Man(b1-4)GlcNAc(b1-4)[Fuc(a1-6)]GlcNAc(b1-4)[Fuc(a1-6)]GlcNAc
# Method in brief: as §1
# [17] = molecular target: Fuc(a1-2)Gal(b1-3)[Fuc(a1-4)]GlcNAc(b1-3)[Fuc(a1-3)[Gal(b1-4)]GlcNAc(b1-6)]Gal(b1-4)Glc
# Method in brief: as §1
# [18] = molecular target: Fuc(a1-2)Gal(b1-3)[Fuc(a1-4)]GlcNAc(b1-3)[Gal(b1-4)GlcNAc(b1-6)]Gal(b1-4)Glc
# Method in brief: as §1
# Fuc(a1-2)Gal(b1-4)Glc = molecular target: Fuc(a1-2)Gal(b1-4)Glc
# Method in brief: as §1
# Fuc(a1-2)Gal(b1-4)Glc6S = molecular target: Fuc(a1-2)Gal(b1-4)Glc6S
# Method in brief: as §1
# Fuc(a1-2)Gal(b1-4)GlcNAc = molecular target: Fuc(a1-2)Gal(b1-4)GlcNAc
# Method in brief: as §1
# [19] = molecular target: Fuc(a1-2)Gal(b1-4)GlcNAc(b1-2)Man
# Method in brief: as §1
# [20] = molecular target: Fuc(a1-2)Gal(b1-4)GlcNAc(b1-2)Man(a1-3)[Fuc(a1-2)Gal(b1-4)GlcNAc(b1-2)Man(a1-6)]Man(b1-4)GlcNAc(b1-4)GlcNAc
# Method in brief: as §1
# [21] = molecular target: Fuc(a1-2)Gal(b1-4)GlcNAc(b1-2)Man(a1-3)[Fuc(a1-2)Gal(b1-4)GlcNAc(b1-2)Man(a1-6)]Man(b1-4)GlcNAc(b1-4)[Fuc(a1-6)]GlcNAc
# Method in brief: as §1
# [22] = molecular target: Fuc(a1-2)Gal(b1-4)GlcNAc(b1-2)[Fuc(a1-2)Gal(b1-4)GlcNAc(b1-4)]Man(a1-3)[Fuc(a1-2)Gal(b1-4)GlcNAc(b1-2)Man(a1-6)]Man(b1-4)GlcNAc(b1-4)GlcNAc
# Method in brief: as §1
# [23] = molecular target: Fuc(a1-2)Gal(b1-4)GlcNAc(b1-3)Gal(b1-4)GlcNAc
# Method in brief: as §1
# [24] = molecular target: Fuc(a1-2)Gal(b1-4)GlcNAc(b1-3)Gal(b1-4)GlcNAc(b1-2)Man(a1-3)[Fuc(a1-2)Gal(b1-4)GlcNAc(b1-3)Gal(b1-4)GlcNAc(b1-2)Man(a1-6)]Man(b1-4)GlcNAc(b1-4)GlcNAc
# Method in brief: as §1
# [25] = molecular target: Fuc(a1-2)Gal(b1-4)GlcNAc(b1-3)Gal(b1-4)GlcNAc(b1-3)Gal(b1-4)GlcNAc
# Method in brief: as §1
# [26] = molecular target: Fuc(a1-2)Gal(b1-4)GlcNAc(b1-3)GalNAc
# Method in brief: as §1
# [27] = molecular target: Fuc(a1-2)Gal(b1-4)GlcNAc(b1-3)[Fuc(a1-2)Gal(b1-4)GlcNAc(b1-6)]GalNAc
# Method in brief: as §1
# [28] = molecular target: Fuc(a1-2)Gal(b1-4)GlcNAc(b1-3)[Fuc(a1-3)[Gal(b1-4)]GlcNAc(b1-6)]Gal(b1-4)Glc
# Method in brief: as §1
# [29] = molecular target: Fuc(a1-2)Gal(b1-4)GlcNAc(b1-6)GalNAc
# Method in brief: as §1
# [30] = molecular target: Fuc(a1-2)Gal(b1-4)GlcNAc6S
# Method in brief: as §1
# [31] = molecular target: Fuc(a1-2)Gal(b1-4)[Fuc(a1-3)]GlcNAc
# Method in brief: as §1
binder,measurement,setting,value
SP16663B-bot-321-25-321 (Bacteroides ovatus) (protein) DDDDEVTMNSKFYLSTKVFPVDSYEASLSVILKDNSVVVNELQPNYRFVACATERLSKDVKITADSDDNLVSAYNKANDTEYNILPAENYSFTNKTVTIENGESVSGDSIKIELLNVGSLTTEGGYLLPVTISSIEGNNLDALSSNRGVVYLKIQNIHVNVESGQPAEGTLIADRSGWTVKVAPTTRGDAKNLIDGTNSDVARDGGAEYWLTVDIGKVQTLTGIRNKCYASSYSPTAVEVFTSSDGAKWKSIGAVTISKSGTQYIKFSKAVETRYLKYYVKQGPNTVSLTEFDLYAK,glycan array binding signal (z-score),Fuc(a1-2)Gal,-0.178
same,glycan array binding signal (z-score),Fuc(a1-2)Gal(b1-3)GalNAc,-0.504
same,glycan array binding signal (z-score),[1],-0.032
same,glycan array binding signal (z-score),[2],-0.326
same,glycan array binding signal (z-score),[3],0.012
same,glycan array binding signal (z-score),[4],-0.417
same,glycan array binding signal (z-score),[5],-0.508
same,glycan array binding signal (z-score),Fuc(a1-2)Gal(b1-3)GlcNAc,-0.292
same,glycan array binding signal (z-score),[6],0.67
same,glycan array binding signal (z-score),[7],-0.336
same,glycan array binding signal (z-score),[8],-0.29
same,glycan array binding signal (z-score),[9],-0.546
same,glycan array binding signal (z-score),[10],0.048
same,glycan array binding signal (z-score),[11],0.3
same,glycan array binding signal (z-score),[12],-0.267
same,glycan array binding signal (z-score),[13],0.413
same,glycan array binding signal (z-score),[14],-0.607
same,glycan array binding signal (z-score),[15],0.013
same,glycan array binding signal (z-score),[16],0.087
same,glycan array binding signal (z-score),[17],-0.301
same,glycan array binding signal (z-score),[18],0.147
same,glycan array binding signal (z-score),Fuc(a1-2)Gal(b1-4)Glc,-0.653
same,glycan array binding signal (z-score),Fuc(a1-2)Gal(b1-4)Glc6S,0.166
same,glycan array binding signal (z-score),Fuc(a1-2)Gal(b1-4)GlcNAc,-0.156
same,glycan array binding signal (z-score),[19],-0.223
same,glycan array binding signal (z-score),[20],-0.251
same,glycan array binding signal (z-score),[21],-0.311
same,glycan array binding signal (z-score),[22],-0.623
same,glycan array binding signal (z-score),[23],-0.487
same,glycan array binding signal (z-score),[24],0.005
same,glycan array binding signal (z-score),[25],-0.369
same,glycan array binding signal (z-score),[26],-0.106
same,glycan array binding signal (z-score),[27],-0.088
same,glycan array binding signal (z-score),[28],-0.632
same,glycan array binding signal (z-score),[29],-0.35
same,glycan array binding signal (z-score),[30],-0.147
same,glycan array binding signal (z-score),[31],-0.253
